# Counter-ions that a name gives are not always drawn. Some of the results follow. Most values come without repeats; read them as rough.
# Columns and labels:
# KB-3-1 = test: growth inhibition relative to DMSO control (SRB); cervical cancer cells: KB-3-1 is the parent and KB-V1 overexpresses MDR1; SRB is the sulforhodamine B stain; higher = more growth inhibition; details: 1 µM; 72 h
# KB-V1 = test: as above; details: 1 µM; 72 h
# 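Note: Read-out is SRB optical density at 490 nm, with the control being wells given 0.5% DMSO vehicle, and compound added one day after cells were plated.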
SMILES,growth inhibition (KB-3-1) [%],growth inhibition (KB-V1) [%]
Clc1ccccc1CN1CCc2sccc2C1 [Ticlopidine HCl],43.4,20.6
COc1cc(-c2cc(-c3cccc(O)c3)cnc2N)cc(OC)c1OC,< 0,< 0
C=CCNC1=C2C[C@@H](C)C[C@H](OC)[C@H](O)[C@@H](C)/C=C(\C)[C@H](OC(N)=O)[C@@H](OC)/C=C\C=C(/C)C(=O)NC(=CC1=O)C2=O [17-AAG (Tanespimycin)],84.2,63.6
CNCc1ccc(C)c(NC(=O)c2ccc(Nc3nc(-c4ccccc4)c4ccccc4n3)cc2)c1,18.7,0.355
CCc1ccc(OCc2ccccc2C(=O)Nc2ccc3nc(C)cc(N)c3c2)cc1,70.4,80.4
Cc1ccc(N(CC2=NCCN2)c2cccc(O)c2)cc1 [Phentolamine Mesylate],68.1,14.5
CC(C)C[C@H](NC(=O)CNC(=O)c1cc(Cl)ccc1Cl)B1OC(=O)C(CC(=O)O)(CC(=O)O)O1,< 0,< 0
CC1=C(/C=C/C(C)=C/C=C/C(C)=C\C(=O)O)C(C)(C)CCC1 [Isotretinoin],20.2,61.9
O=C(Nc1ccccc1)N1CCN(c2nc(-c3ccccc3)ns2)CC1,8.81,40.3
CCN1CCN(c2ccc(Nc3cc(N(C)C(=O)Nc4c(Cl)c(OC)cc(OC)c4Cl)ncn3)cc2)CC1,< 0,47.7
C[C@@H](N)[C@H]1CC[C@H](C(=O)Nc2ccncc2)CC1,13.8,28
CC(=O)S[C@@H]1CC2=CC(=O)CC[C@]2(C)[C@H]2CC[C@@]3(C)[C@@H](CC[C@@]34CCC(=O)O4)[C@H]12 [Spironolactone],25.2,4.8
CN(C)CCCN1c2ccccc2CCc2ccc(Cl)cc21 [Clomipramine HCl],1.3,11.7
Cc1cc(Nc2cc(N3CCN(C)CC3)nc(/C=C/c3ccccc3)n2)n[nH]1,92.6,75.6
COc1cccc2c1C(=O)c1c(O)c3c(c(O)c1C2=O)C[C@@](O)(C(=O)CO)C[C@@H]3O[C@H]1C[C@H](N)[C@H](O[C@@H]2CCCCO2)[C@H](C)O1 [Pirarubicin],71.3,56.5
Cc1nc(C#Cc2ccnc(Cl)c2)c(C)n1-c1ccc(OC(F)(F)F)cc1,31,37.1

SMILES,growth inhibition (KB-3-1) [%],growth inhibition (KB-V1) [%]
C=CC(=O)Nc1cc2c(Nc3ccc(F)c(Cl)c3)ncnc2cc1OCCCN1CCOCC1 [Canertinib (CI-1033)],45,44.9
NCCCCCNCC12CC3CC(CC(C3)C1)C2 [IEM 1754 dihydrobroMide],13,70.9
C#Cc1cccc(Nc2ncnc3cc(OC)c(OCCCCCCC(=O)NO)cc23)c1,86.1,74
Cn1c(=O)cc(N2CCC[C@@H](N)C2)n(Cc2cc(F)ccc2C#N)c1=O [Trelagliptin],52.8,5.56
Cc1ccc(NC(=O)c2ccc(CN3CCN(C)CC3)cc2)cc1Nc1nccc(-c2cccnc2)n1 [Imatinib Mesylate (STI571)],14.9,13.8
CCCCOc1ccc(CC(=O)NO)cc1 [Bufexamac],1.72,12.3
CC(C)(C(=O)O)c1ccc(C(O)CCCN2CCC(C(O)(c3ccccc3)c3ccccc3)CC2)cc1 (centres undefined) [Fexofenadine HCl],< 0,< 0
C[C@H](NC(=O)CCc1nc2ccccc2c(=O)[nH]1)c1ccccc1,46.6,14.2
CC(NCCc1ccc(O)cc1)C(O)c1ccc(O)cc1 (centres undefined) [Ritodrine HCl],29.6,11.7
CCN(CC)CC(=O)Nc1c(C)cccc1C [Lidocaine],4.87,33.3
"COc1cc2c(cc1Cc1cccc(Cl)c1F)c(=O)c(C(=O)O)cn2[C@H](CO)C(C)C [Elvitegravir (GS-9137, JTK-303)]",49.8,19.6
Cc1cccc(C)c1OCC(=O)N[C@@H](Cc1ccccc1)[C@@H](O)C[C@H](Cc1ccccc1)NC(=O)[C@H](C(C)C)N1CCCNC1=O [Lopinavir],13,32.2
CCOc1nc2cccc(C(=O)O)c2n1Cc1ccc(-c2ccccc2-c2nnn[nH]2)cc1 [Candesartan],27.7,9.13
CCC(=O)NCC[C@@H]1CCc2ccc3c(c21)CCO3 [Ramelteon],11.9,32.3
CCC[C@H](NC(=O)/C(C#N)=C/c1cccc(Br)n1)c1ccccc1 [Degrasyn (WP1130)],< 0,6.54
CCCc1cc(C)[nH]c(=O)c1CNC(=O)c1cc(-c2ccc(N3CCN(C(C)C)CC3)nc2)cc2c1cnn2C(C)C,5.75,19.7
